Where a name gives a salt, the structure may show the parent alone.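 Five compound concentrations were applied to cells in 96-well plates for 48 hours; endpoints were derived by simple linear interpolation of the resulting dose-response curve. GI50 = concentration required for 50% inhibition of growth.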 Active and inactive are the calls of the source. No stated cut-off is given here; in the data, active = GI50 up to about 1.1 µM and inactive = higher.
Tested on: NCI-H322M
Test: growth of human tumour cells (NCI), 48 h

Compound | GI50
CCOC(=O)/C(=C\c1ccnc2ccccc12)P(=O)(OCC)OCC | inactive: 3.29 µM
O=C(c1ccccc1)C1C(c2ccccc2)N1S(=O)(=O)c1ccccc1 (configuration not stated) | inactive: > 100 µM
Cc1cccc(C)c1NC(=O)CCCC(=O)C1CCC/C1=N\NC(=O)C(=O)NN (configuration not stated) | inactive: > 100 µM
NCCCCC(N)C(=O)N1CCN(c2nc(N3CCCC3)c3nc(Cl)c(NCc4ccccc4)nc3n2)CC1 (configuration not stated) | inactive: 18 µM
O=C(Nc1ccc(Cl)cc1)c1cc(S(=O)(=O)N2CCNNC2=O)c(S)cc1Cl | inactive: > 100 µM
COc1ccc2c(c1)[n+]([O-])c(C(=O)CC(=O)C(=O)Nc1cccc(Cl)c1C)c(C)[n+]2[O-] | inactive: > 100 µM
COc1cc(CNc2ccc(C)cc2)cc(OC)c1OC | active: 0.984 µM
Cc1ccc2c(c1)C(=O)C(Cc1ccccc1C(=O)O)C2 (configuration not stated) | inactive: > 100 µM
N=C(Nc1nc(-c2ccccn2)cc2ccccc12)c1ccccn1 | active: 0.0293 µM
Cc1cc(C#N)c(Nc2ccc(F)cc2[N+](=O)[O-])s1 | inactive: > 100 µM
N#CC1C[C@@H]2CC3(CCC2CN1C(=O)c1ccccc1)OCCO3 (some centres not stated) | inactive: > 100 µM
O=C(c1ccsc1)c1cc2c(s1)C(=O)c1ccsc1C2=O | active: 0.527 µM
Cc1cc(C)c2c(=O)n(CC(O)CN3CCN(c4ncccn4)CC3)sc2n1 (configuration not stated) | inactive: 16.6 µM
C/C(CC(O)(C(F)(F)F)C(F)(F)F)=N\O | inactive: > 10 µM
COc1cccc(NC(=O)/C(Cc2nc3ccccc3nc2C)=N/NC(=O)C[n+]2ccccc2)c1 | inactive: > 100 µM
COC(=O)[C@H](Cc1ccccc1)NC(=O)N(CCN(CCC#N)C(=O)N[C@H](C(=O)OC)C(C)C)c1ccccc1 | inactive: > 100 µM

Compound | GI50
O=C(C/C(=N/O)c1cc(-c2ccccc2)no1)c1ccccc1 | inactive: > 100 µM
COc1cc(C2c3cc4c(cc3[C@@H](Nc3ccccc3)C3COC(=O)[C@H]23)OCO4)cc(OC)c1O (some centres not stated) | inactive: 5.24 µM
Brc1ccccc1-c1ncc(-c2ccccc2)o1 | inactive: 56.2 µM
Cc1ccc2c(c1)[nH]c(=S)n2C=C1C(=O)CC(C)(C)CC1=O | inactive: > 100 µM
CN[C@@H]1[C@H](O)[C@H](NC)[C@H]2O[C@@]3(O)C(=O)C[C@@H](C)O[C@H]3O[C@@H]2[C@H]1O [SPECTINOMYCIN SULFATE] | inactive: > 100 µM
CCOC(=O)/C(SC#N)=C(/N)N1CCCC1 | inactive: > 100 µM
CCOC(=O)c1ccc(N[C@@H]2c3cc4c(cc3C(C3=CC(=O)C(=O)C(OC)=C3)[C@H]3C(=O)OCC32)OCO4)cc1 (some centres not stated) | inactive: 18 µM
COc1ccc(/C=C(\NC(=O)c2ccccc2)c2nc3ccccc3[nH]2)cc1 | inactive: 89.3 µM
O=C(N/N=C/c1ccccc1O)c1cccc([N+](=O)[O-])c1 | inactive: 28.6 µM
CC(=O)CCn1[nH]c(=O)c(Cl)c(Cl)c1=O | inactive: > 100 µM
O=C(NOC(=O)c1ccc([N+](=O)[O-])cc1)c1ccc(Cl)cc1 | inactive: > 100 µM
CC(=O)Nc1ccc2c3c(cc(O)c2c1)N(C(=O)CCCC(=O)N1CC(CCl)c2c1cc(O)c1cc(NC(C)=O)ccc21)CC3CCl (configuration not stated) | active: 0.0223 µM
Cc1cc(Nc2ccc(S(=O)(=O)O)c3cc(S(=O)(=O)O)cc(S(=O)(=O)O)c23)c2ccccc2n1 | inactive: > 100 µM
COc1c(C)c(OCC=C(C)C)cc(CO)c1CO | inactive: 48.2 µM
COc1cc([C@@H]2c3cc4c(cc3[C@@H](Nc3ccc(/N=C\c5ccc(C(=O)O[C@@H](C(=O)O[C@H]6C[C@@]7(O)[C@@H](OC(=O)c8ccccc8)[C@@H]8[C@]9(OC(C)=O)CO[C@@H]9C[C@H](O)[C@@]8(C)C(=O)[C@H](OC(C)=O)C(=C6C)C7(C)C)[C@@H](NC(=O)c6ccccc6)c6ccccc6)cc5)cc3)[C@H]3COC(=O)[C@H]23)OCO4)cc(OC)c1O | inactive: > 24.8 µM
Cc1cccc2c(=O)c3cccc([C@@H](C)C(=O)O)c3oc12 | inactive: > 100 µM

— ChEMBL document CHEMBL1201862, “PubChem BioAssay data set” (2004)
